# In the supplement of paper PMC8728848:
# Some of the results follow.
# B1: CSA (Cytisus scoparius), P29257 (protein)
# chain: SEELSFSFTKFKTDQKNLILQRDALITPTGKLQLTTVENGKPAAYSLGRALYSTPIHIWDKSTGDEASFATFFSFVISDAPNPSTAATDGLAFFLAPADTQPQSAGGYLGLFEKDSSYNSSNQIVAVEFDTYYNSAWDPQTNPHIGIDVNTIKSKKVSSWGFKNGNVATVLITYQPSSKSLVASLVYPSGQTSDKTSYIISANVDLKATVPEWVRIGFSATTGQTDNYIETHDILSWSFKSKLPATKN
# What was measured:
# Assay in all cases: glycan array binding signal (z-score within array); higher = stronger binding
# Conditions in all cases: glycan notation: IUPAC condensed, linker removed
# [1] = molecular target: Neu5Ac(a2-3)Gal(b1-4)GlcNAc(b1-2)[Neu5Ac(a2-3)Gal(b1-4)GlcNAc(b1-6)]Man(a1-6)[Neu5Ac(a2-3)Gal(b1-4)GlcNAc(b1-2)Man(a1-3)][GlcNAc(b1-4)]Man(b1-4)GlcNAc(b1-4)GlcNAc
# Method in brief: (§1)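 Arrays were curated from the Consortium for Functional Glycomics database, 3228 in total, and kept only where the protein sequence was available. Binding is expressed as a within-array Z-score. This score was averaged across arrays of the same protein sequence at different concentrations or buffers and across linkers, and negative values can be read as non-binding.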
# [2] = molecular target: Neu5Ac(a2-3)Gal(b1-4)GlcNAc(b1-3)Gal
# Method in brief: as §1
# [3] = molecular target: Neu5Ac(a2-3)Gal(b1-4)GlcNAc(b1-3)Gal(b1-3)GlcNAc
# Method in brief: as §1
# [4] = molecular target: Neu5Ac(a2-3)Gal(b1-4)GlcNAc(b1-3)Gal(b1-4)GlcNAc
# Method in brief: as §1
# [5] = molecular target: Neu5Ac(a2-3)Gal(b1-4)GlcNAc(b1-3)Gal(b1-4)GlcNAc(b1-2)Man(a1-3)[Neu5Ac(a2-3)Gal(b1-4)GlcNAc(b1-3)Gal(b1-4)GlcNAc(b1-2)Man(a1-6)]Man(b1-4)GlcNAc(b1-4)GlcNAc
# Method in brief: as §1
# [6] = molecular target: Neu5Ac(a2-3)Gal(b1-4)GlcNAc(b1-3)Gal(b1-4)GlcNAc(b1-3)Gal(b1-4)GlcNAc
# Method in brief: as §1
# [7] = molecular target: Neu5Ac(a2-3)Gal(b1-4)GlcNAc(b1-3)Gal(b1-4)GlcNAc(b1-3)Gal(b1-4)GlcNAc(b1-2)Man(a1-3)[Neu5Ac(a2-3)Gal(b1-4)GlcNAc(b1-3)Gal(b1-4)GlcNAc(b1-3)Gal(b1-4)GlcNAc(b1-2)Man(a1-6)]GalNAc
# Method in brief: as §1
# [8] = molecular target: Neu5Ac(a2-3)Gal(b1-4)GlcNAc(b1-3)Gal(b1-4)GlcNAc(b1-3)GalNAc
# Method in brief: as §1
# [9] = molecular target: Neu5Ac(a2-3)Gal(b1-4)GlcNAc(b1-3)Gal(b1-4)GlcNAc(b1-3)[Neu5Ac(a2-3)Gal(b1-4)GlcNAc(b1-3)Gal(b1-4)GlcNAc(b1-6)]GalNAc
# Method in brief: as §1
# [10] = molecular target: Neu5Ac(a2-3)Gal(b1-4)GlcNAc(b1-3)Gal(b1-4)GlcNAc(b1-6)[Gal(b1-3)]GalNAc
# Method in brief: as §1
# [11] = molecular target: Neu5Ac(a2-3)Gal(b1-4)GlcNAc(b1-3)Gal(b1-4)[Fuc(a1-3)]GlcNAc
# Method in brief: as §1
# [12] = molecular target: Neu5Ac(a2-3)Gal(b1-4)GlcNAc(b1-3)GalNAc
# Method in brief: as §1
# [13] = molecular target: Neu5Ac(a2-3)Gal(b1-4)GlcNAc(b1-3)[Neu5Ac(a2-3)Gal(b1-4)GlcNAc(b1-6)]GalNAc
# Method in brief: as §1
# [14] = molecular target: Neu5Ac(a2-3)Gal(b1-4)GlcNAc(b1-6)GalNAc
# Method in brief: as §1
# [15] = molecular target: Neu5Ac(a2-3)Gal(b1-4)GlcNAc(b1-6)[Gal(b1-3)]GalNAc
# Method in brief: as §1
# [16] = molecular target: Neu5Ac(a2-3)Gal(b1-4)GlcNAc(b1-6)[Neu5Ac(a2-3)Gal(b1-3)]GalNAc
# Method in brief: as §1
# [17] = molecular target: Neu5Ac(a2-3)Gal(b1-4)GlcNAc6S
# Method in brief: as §1
# [18] = molecular target: Neu5Ac(a2-3)Gal(b1-4)[Fuc(a1-3)]GlcNAc
# Method in brief: as §1
# [19] = molecular target: Neu5Ac(a2-3)Gal(b1-4)[Fuc(a1-3)]GlcNAc(b1-2)Man
# Method in brief: as §1
# [20] = molecular target: Neu5Ac(a2-3)Gal(b1-4)[Fuc(a1-3)]GlcNAc(b1-3)Gal
# Method in brief: as §1
# [21] = molecular target: Neu5Ac(a2-3)Gal(b1-4)[Fuc(a1-3)]GlcNAc(b1-3)Gal(b1-4)GlcNAc
# Method in brief: as §1
# [22] = molecular target: Neu5Ac(a2-3)Gal(b1-4)[Fuc(a1-3)]GlcNAc(b1-3)Gal(b1-4)[Fuc(a1-3)]GlcNAc(b1-3)Gal(b1-4)[Fuc(a1-3)]GlcNAc
# Method in brief: as §1
# [23] = molecular target: Neu5Ac(a2-3)Gal(b1-4)[Fuc(a1-3)]GlcNAc(b1-3)GalNAc
# Method in brief: as §1
# [24] = molecular target: Neu5Ac(a2-3)Gal(b1-4)[Fuc(a1-3)]GlcNAc(b1-6)[Gal(b1-3)]GalNAc
# Method in brief: as §1
# [25] = molecular target: Neu5Ac(a2-3)Gal(b1-4)[Fuc(a1-3)]GlcNAc(b1-6)[Neu5Ac(a2-3)Gal(b1-3)]GalNAc
# Method in brief: as §1
# [26] = molecular target: Neu5Ac(a2-3)Gal(b1-4)[Fuc(a1-3)]GlcNAc6S
# Method in brief: as §1
# [27] = molecular target: Neu5Ac(a2-3)Gal6S(b1-4)GlcNAc
# Method in brief: as §1
# [28] = molecular target: Neu5Ac(a2-3)Gal6S(b1-4)[Fuc(a1-3)]GlcNAc
# Method in brief: as §1
# Neu5Ac(a2-3)GalNAc = molecular target: Neu5Ac(a2-3)GalNAc
# Method in brief: as §1
# [29] = molecular target: Neu5Ac(a2-3)GalNAc(b1-4)GlcNAc
# Method in brief: as §1
# [30] = molecular target: Neu5Ac(a2-3)[GalNAc(b1-4)]Gal(b1-4)Glc
# Method in brief: as §1
# [31] = molecular target: Neu5Ac(a2-3)[GalNAc(b1-4)]Gal(b1-4)GlcNAc
# Method in brief: as §1
# [32] = molecular target: Neu5Ac(a2-3)[GalNAc(b1-4)]Gal(b1-4)GlcNAc(b1-3)GalNAc
# Method in brief: as §1
# [33] = molecular target: Neu5Ac(a2-3)[Neu5Ac(a2-6)]GalNAc
# Method in brief: as §1
# Neu5Ac(a2-6)Gal = molecular target: Neu5Ac(a2-6)Gal
# Method in brief: as §1
# [34] = molecular target: Neu5Ac(a2-6)Gal(b1-3)GlcNAc(b1-3)[Gal(b1-4)GlcNAc(b1-6)]Gal(b1-4)Glc
# Method in brief: as §1
# Neu5Ac(a2-6)Gal(b1-4)Glc = molecular target: Neu5Ac(a2-6)Gal(b1-4)Glc
# Method in brief: as §1
# [35] = molecular target: Neu5Ac(a2-6)Gal(b1-4)GlcNAc
# Method in brief: as §1
# [36] = molecular target: Neu5Ac(a2-6)Gal(b1-4)GlcNAc(b1-2)Man
# Method in brief: as §1
# [37] = molecular target: Neu5Ac(a2-6)Gal(b1-4)GlcNAc(b1-2)Man(a1-3)Man(b1-4)GlcNAc(b1-4)GlcNAc
# Method in brief: as §1
# [38] = molecular target: Neu5Ac(a2-6)Gal(b1-4)GlcNAc(b1-2)Man(a1-3)[Gal(b1-4)GlcNAc(b1-2)Man(a1-6)]Man(b1-4)GlcNAc(b1-4)GlcNAc
# Method in brief: as §1
# [39] = molecular target: Neu5Ac(a2-6)Gal(b1-4)GlcNAc(b1-2)Man(a1-3)[GlcNAc(b1-2)Man(a1-6)]Man(b1-4)GlcNAc(b1-4)GlcNAc
# Method in brief: as §1
# [40] = molecular target: Neu5Ac(a2-6)Gal(b1-4)GlcNAc(b1-2)Man(a1-3)[GlcNAc(b1-4)][Neu5Ac(a2-6)Gal(b1-4)GlcNAc(b1-2)Man(a1-6)]Man(b1-4)GlcNAc(b1-4)GlcNAc
# Method in brief: as §1
# [41] = molecular target: Neu5Ac(a2-6)Gal(b1-4)GlcNAc(b1-2)Man(a1-3)[Man(a1-6)]Man(b1-4)GlcNAc(b1-4)GlcNAc
# Method in brief: as §1
# [42] = molecular target: Neu5Ac(a2-6)Gal(b1-4)GlcNAc(b1-2)Man(a1-3)[Neu5Ac(a2-3)Gal(b1-4)GlcNAc(b1-2)Man(a1-6)]Man(b1-4)GlcNAc(b1-4)GlcNAc
# Method in brief: as §1
# [43] = molecular target: Neu5Ac(a2-6)Gal(b1-4)GlcNAc(b1-2)Man(a1-3)[Neu5Ac(a2-6)Gal(b1-4)GlcNAc(b1-2)Man(a1-6)]Man(b1-4)GlcNAc(b1-4)GlcNAc
# Method in brief: as §1
# [44] = molecular target: Neu5Ac(a2-6)Gal(b1-4)GlcNAc(b1-2)Man(a1-3)[Neu5Ac(a2-6)Gal(b1-4)GlcNAc(b1-2)Man(a1-6)]Man(b1-4)GlcNAc(b1-4)[Fuc(a1-6)]GlcNAc
# Method in brief: as §1
# [45] = molecular target: Neu5Ac(a2-6)Gal(b1-4)GlcNAc(b1-2)Man(a1-6)Man(b1-4)GlcNAc(b1-4)GlcNAc
# Method in brief: as §1
# [46] = molecular target: Neu5Ac(a2-6)Gal(b1-4)GlcNAc(b1-2)Man(a1-6)[Gal(b1-4)GlcNAc(b1-2)Man(a1-3)]Man(b1-4)GlcNAc(b1-4)GlcNAc
# Method in brief: as §1
# [47] = molecular target: Neu5Ac(a2-6)Gal(b1-4)GlcNAc(b1-2)Man(a1-6)[GlcNAc(b1-2)Man(a1-3)]Man(b1-4)GlcNAc(b1-4)GlcNAc
# Method in brief: as §1
# [48] = molecular target: Neu5Ac(a2-6)Gal(b1-4)GlcNAc(b1-2)Man(a1-6)[Man(a1-3)]Man(b1-4)GlcNAc(b1-4)GlcNAc
# Method in brief: as §1
# [49] = molecular target: Neu5Ac(a2-6)Gal(b1-4)GlcNAc(b1-2)[Neu5Ac(a2-6)Gal(b1-4)GlcNAc(b1-4)]Man(a1-3)[GlcNAc(b1-4)][Neu5Ac(a2-6)Gal(b1-4)GlcNAc(b1-2)[Neu5Ac(a2-6)Gal(b1-4)GlcNAc(b1-6)]Man(a1-6)]Man(b1-4)GlcNAc(b1-4)GlcNAc
# Method in brief: as §1
# [50] = molecular target: Neu5Ac(a2-6)Gal(b1-4)GlcNAc(b1-2)[Neu5Ac(a2-6)Gal(b1-4)GlcNAc(b1-4)]Man(a1-3)[GlcNAc(b1-4)][Neu5Ac(a2-6)Gal(b1-4)GlcNAc(b1-4)Man(a1-6)]Man(b1-4)GlcNAc(b1-4)GlcNAc
# Method in brief: as §1
binder,measurement,setting,value
B1,glycan array binding signal (z-score),[1],-0.211
same,glycan array binding signal (z-score),[2],-0.223
same,glycan array binding signal (z-score),[3],-0.212
same,glycan array binding signal (z-score),[4],-0.17
same,glycan array binding signal (z-score),[5],0.24
same,glycan array binding signal (z-score),[6],-0.227
same,glycan array binding signal (z-score),[7],0.713
same,glycan array binding signal (z-score),[8],-0.216
same,glycan array binding signal (z-score),[9],-0.182
same,glycan array binding signal (z-score),[10],-0.051
same,glycan array binding signal (z-score),[11],-0.231
same,glycan array binding signal (z-score),[12],-0.206
same,glycan array binding signal (z-score),[13],-0.079
same,glycan array binding signal (z-score),[14],-0.181
same,glycan array binding signal (z-score),[15],-0.131
same,glycan array binding signal (z-score),[16],-0.243
same,glycan array binding signal (z-score),[17],-0.185
same,glycan array binding signal (z-score),[18],-0.187
same,glycan array binding signal (z-score),[19],-0.208
same,glycan array binding signal (z-score),[20],-0.201
same,glycan array binding signal (z-score),[21],-0.149
same,glycan array binding signal (z-score),[22],-0.162
same,glycan array binding signal (z-score),[23],-0.172
same,glycan array binding signal (z-score),[24],-0.146
same,glycan array binding signal (z-score),[25],-0.172
same,glycan array binding signal (z-score),[26],-0.185
same,glycan array binding signal (z-score),[27],-0.174
same,glycan array binding signal (z-score),[28],-0.231
same,glycan array binding signal (z-score),Neu5Ac(a2-3)GalNAc,-0.205
same,glycan array binding signal (z-score),[29],-0.204
same,glycan array binding signal (z-score),[30],0.208
same,glycan array binding signal (z-score),[31],0.338
same,glycan array binding signal (z-score),[32],0.263
same,glycan array binding signal (z-score),[33],-0.224
same,glycan array binding signal (z-score),Neu5Ac(a2-6)Gal,-0.102
same,glycan array binding signal (z-score),[34],-0.199
same,glycan array binding signal (z-score),Neu5Ac(a2-6)Gal(b1-4)Glc,-0.154
same,glycan array binding signal (z-score),[35],-0.184
same,glycan array binding signal (z-score),[36],-0.22
same,glycan array binding signal (z-score),[37],-0.213
same,glycan array binding signal (z-score),[38],-0.204
same,glycan array binding signal (z-score),[39],-0.22
same,glycan array binding signal (z-score),[40],-0.228
same,glycan array binding signal (z-score),[41],-0.185
same,glycan array binding signal (z-score),[42],-0.205
same,glycan array binding signal (z-score),[43],-0.171
same,glycan array binding signal (z-score),[44],0.079
same,glycan array binding signal (z-score),[45],-0.128
same,glycan array binding signal (z-score),[46],-0.157
same,glycan array binding signal (z-score),[47],-0.138
same,glycan array binding signal (z-score),[48],-0.236
same,glycan array binding signal (z-score),[49],-0.171
same,glycan array binding signal (z-score),[50],-0.261
